# Over roughly 33,000 sequences, “E-score (-0.5 to 0.5)” has its median near -0.021; the highest 2% begin near 0.32. The list shows a part of the results.
# Target: T1, Zap1 (UniProt P47043)
# T1 sequence: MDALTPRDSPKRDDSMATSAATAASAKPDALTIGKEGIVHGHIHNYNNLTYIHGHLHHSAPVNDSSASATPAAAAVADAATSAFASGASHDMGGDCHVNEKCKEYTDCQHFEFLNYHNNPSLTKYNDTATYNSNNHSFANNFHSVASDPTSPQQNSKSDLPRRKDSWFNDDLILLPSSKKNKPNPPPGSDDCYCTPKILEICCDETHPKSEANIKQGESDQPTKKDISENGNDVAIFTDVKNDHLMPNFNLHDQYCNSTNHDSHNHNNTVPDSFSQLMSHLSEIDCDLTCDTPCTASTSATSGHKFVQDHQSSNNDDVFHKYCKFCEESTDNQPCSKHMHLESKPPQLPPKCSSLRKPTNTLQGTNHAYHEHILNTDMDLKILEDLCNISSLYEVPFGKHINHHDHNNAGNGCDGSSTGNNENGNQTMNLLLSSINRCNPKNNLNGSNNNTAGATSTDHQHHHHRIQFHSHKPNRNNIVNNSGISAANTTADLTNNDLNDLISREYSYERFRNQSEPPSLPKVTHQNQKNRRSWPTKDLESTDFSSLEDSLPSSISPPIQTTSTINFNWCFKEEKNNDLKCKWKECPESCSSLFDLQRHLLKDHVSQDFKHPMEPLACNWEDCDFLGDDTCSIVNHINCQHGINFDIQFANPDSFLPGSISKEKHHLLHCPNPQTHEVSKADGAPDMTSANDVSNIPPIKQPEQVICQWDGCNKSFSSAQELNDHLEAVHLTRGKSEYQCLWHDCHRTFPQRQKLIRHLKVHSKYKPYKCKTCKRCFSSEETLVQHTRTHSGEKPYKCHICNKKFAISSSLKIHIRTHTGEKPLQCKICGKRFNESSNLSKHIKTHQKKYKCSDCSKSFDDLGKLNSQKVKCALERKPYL
# Assay: PBM E-score (8-mer binding enrichment) (E-score (-0.5 to 0.5)); higher = stronger / more preferred TF binding; most listed sequences are background and not binding sites
# Details: protein concentration: 200 nM; construct: GST-full length
# Summary of the method: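 Yeast transcription factors, full-length or as DNA-binding domains, were expressed with a GST tag using PURExpress in vitro transcription/translation. At about 100-200 nM they were applied to universal all-10-mer Agilent arrays, double-stranded by primer extension on fresh or once-stripped slides. Fluorescent anti-GST detected bound protein, and masliner normalised the scans. E-scores for ungapped eight-base words, pooled with reverse complements, came from the Universal PBM Analysis Suite.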
row,Sequence,PBM E-score
1,CCAGACCG,0.0696
2,GTGAGTCA,-0.0169
3,ATTAGTGA,0.173
4,CATAACCA,0.462
5,AGCATTGG,-0.237
6,AGCCTCGC,-0.174
7,AACGAGTC,-0.229
8,AGCCCGGC,-0.201
9,AAAGTACT,0.193
10,CCCACAGC,0.00743
11,AACTCGGT,0.128
12,AATGAAAT,0.149
13,TCTCTGAA,-0.0746
14,AGTATCCC,-0.113
15,AACATTGT,-0.0906
16,GCTCTACC,-0.256
17,AAAAAGAA,0.0584
18,ACATGATG,-0.206
19,AATTACGG,0.24
20,ATAGAATC,-0.0515
21,GTTTTTAA,0.219
22,AACCCATA,0.391
23,AGCTCAAC,-0.097
24,AGTGACTG,-0.0452
25,ACCCCTCG,0.347

row,Sequence,PBM E-score
1,GCTCCACC,-0.264
2,ATCGCCGG,-0.142
3,ACCGTCGG,-0.0624
4,CAGTTATC,0.0632
5,AGTGCTGC,-0.265
6,AAAATCTA,0.0234
7,CTATGAGA,-0.141
8,AAACTCTA,0.0237
9,CAGGTTAA,0.325
10,ACGAGAGA,-0.125
11,AGCTACAA,-0.145
12,ATGATGGC,-0.209
13,CGATCCCC,-0.179
14,AGCGGCCA,-0.137
15,AAATCACA,-0.0161
16,AAAATAGA,0.133
17,ATTCAGTC,-0.0768
18,GATGCTAC,-0.227
19,CCCGTGCC,-0.317
20,TAGTACGA,0.00069
21,TATAGTAA,0.123
22,CCCCCCTC,-0.435
23,CGAGTCGC,-0.283
24,AAGCGCAT,-0.0853
25,GACAACAC,-0.0164

row,Sequence,PBM E-score
1,ACCAATTA,0.249
2,ACACTACA,0.0886
3,TCCCGCAA,0.0843
4,CGTGACGA,0.0724
5,GATCACGC,-0.00269
6,ACGGAGGC,-0.257
7,GGAGTTGA,-0.194
8,TATTACCA,0.194
9,CCAGTAGG,-0.122
10,CTCCTAGC,-0.307
11,ACGAATAG,-0.0113
12,ACTCTCCG,-0.13
13,ACCCACTG,0.0823
14,CAGTACCC,0.313
15,ACCTAAAA,0.296
16,GGCGTTCA,0.00932
17,GCGGTAGA,-0.114
18,CGCATACA,0.0301
19,TATACAGA,0.0972
20,ACTCTTAT,0.119
21,CGCGTCTC,-0.0996
22,TCAGGACA,0.0863
23,CATCGCAC,-0.0948
24,GACCGTTA,0.2
25,GCGGAATA,-0.108

row,Sequence,PBM E-score
1,GCATGAAC,-0.0216
2,CGGCGTTC,-0.194
3,ATTGATAA,0.109
4,CCTAGTAG,-0.209
5,CCCGACGA,0.117
6,CCTGGTAA,-0.0454
7,GTCCCGGA,-0.217
8,CAAGACGG,-0.0425
9,ACCGAATA,0.209
10,ACCATCGT,-0.0674
11,CAGATGGG,-0.0879
12,AGCACAAA,0.179
13,GAGTTTTA,0.0362
14,CACCATGC,-0.194
15,ACACATAA,0.107
16,CCCCTTAA,-0.0744
17,TCTCGGCA,-0.0878
18,TCACGCGA,-0.048
19,AACGGGAG,-0.0406
20,GCACGCAC,-0.263
21,GCGGGACC,-0.0776
22,GAGCTTTA,-0.156
23,TAGACGGA,-0.106
24,AAGCTGCT,-0.176
25,ACACGTAG,-0.116

row,Sequence,PBM E-score
1,ACCTCACT,0.106
2,CCTCGAGA,0.192
3,GAGGCTTA,-0.23
4,CGCAGTCC,-0.0786
5,CTTCCAAC,-0.00474
6,CGGTAGGC,-0.0205
7,GTGGCTTA,-0.127
8,CGTAGCAA,-0.142
9,AGGGGAGA,-0.226
10,AGTGTACA,-0.0381
11,TTTTAAAA,0.227
12,CACGTACG,-0.19
13,AGACGGTC,-0.0807
14,TGAGAGAA,-0.0708
15,CAACTCGC,0.0406
16,CCCTCTAA,0.0729
17,GTCACAGA,0.105
18,ATAGCGAA,0.0489
19,CGTCCGTA,0.0251
20,ACCTAGAT,0.0925
21,CAACAATC,0.107
22,CTTGTCCA,-0.141
23,TAGGCCGA,-0.131
24,CTTATTTA,0.0152
25,AAAAGGTC,0.367

row,Sequence,PBM E-score
1,CGAGTGGA,0.0384
2,CAACATGC,-0.185
3,CTGTTTTA,0.151
4,CCAATACC,0.162
5,GCACCGGA,-0.061
6,ATCCAAAC,0.14
7,CGGCGCGC,-0.035
8,AACCAGCC,0.0429
9,AGATTCAC,-0.207
10,CATCAGCG,-0.182
11,CAAAAAAA,0.312
12,TACGCTAA,0.0172
13,ACGTGTTC,-0.173
14,TATATGGA,-0.0219
15,AGTTCCAC,0.0816
16,AACCCCTC,0.353
17,ACCTTCCT,-0.0167
18,CCGTAGAC,-0.13
19,CAATAACG,0.138
20,CCAAGTGG,-0.0228
21,TATATTCA,0.0295
22,GTATTGCA,-0.136
23,CCCGATAA,-0.004
24,TCTGTGAA,0.0856
25,CAGTTATA,0.0691

row,Sequence,PBM E-score
1,TAGTACCA,0.163
2,CGCTCGGA,0.0163
3,CTAGTCGC,-0.254
4,CTAGACAA,-0.00796
5,CAGGAACA,-0.013
6,ACAGCAAG,0.0466
7,ACGGCCCC,-0.0345
8,AGGGGGGC,-0.42
9,GACGTGAA,0.0444
10,GAAGCGGC,-0.196
11,AACTAGCC,-0.0594
12,TCCGTCAA,0.0264
13,ATAACTTG,0.107
14,ATTTACAA,0.129
15,AATAACCG,0.421
16,AATTTCAG,-0.123
17,CCTTGCCC,-0.121
18,AGCCAAGG,-0.00722
19,AAAACTTA,0.104
20,TCACAGGA,-0.0922
21,CCATCTTC,-0.0575
22,TACATATA,0.225

# Source: the supplement of paper PMC3334620
